Test results reported in PubChem BioAssay AID1745853 (National Center for Advancing Translational Sciences (NCATS), 2022).
The other results are listed elsewhere or left out. Further columns of the screen follow, without active or inactive calls. Numbered stars: 1 amine (or outer) side, 2 acyl side, 3 side chain; on linkers, the order of the positions; unused ones are H or OH. Square brackets hold non-standard residues; d marks the D form. Peptide text beside a SMILES is read from it. * marks the point of attachment. ξ: configuration not given here. X9 = CCC(C)(N*)C(=O)C1CC[C@@H](C(=O)N[C@@H](Cc2ccccc2)C(=O)NCC(=O)O)N1; X8 = O=C([C@@H]1CC(O)CN1[*:1])[*:2]; aIle = CC[C@@H](C)[C@H](N)C(=O)O; Thr(3ξ) = CC(O)[C@H](N)C(=O)O; ξIva = CCC(C)(N)C(=O)O; Aib = CC(C)(N)C(=O)O

Experiments:
Assay in all cases: Primary Screen for Target Class Profiling of Small Molecule Inhibitors of Methyltransferases
[1] = target: Glycine N-methyltransferase (Homo sapiens) (UniProt Q14749); conditions: purified enzyme, MTase-Glo SAH luminescence; measured here: GNMT inhibition; at 40 µM; stronger effect = lower value
Summary of the method: (§1)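 Each enzyme was assayed with SAM and its substrate. SAH formation detected by MTase-Glo luminescence; single-point 40 uM screen[…].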

[2] = target: Guanidinoacetate N-methyltransferase (Homo sapiens) (UniProt Q14353); conditions: purified enzyme, MTase-Glo SAH luminescence; measured here: GAMT inhibition; at 40 µM; stronger effect = lower value
Summary of the method: as §1

[3] = target: Histamine N-methyltransferase (Homo sapiens) (UniProt P50135); conditions: purified enzyme, MTase-Glo SAH luminescence; measured here: HNMT inhibition; at 40 µM; stronger effect = lower value
Summary of the method: as §1

[4] = target: Nicotinamide N-methyltransferase (Homo sapiens) (UniProt P40261); conditions: purified enzyme, MTase-Glo SAH luminescence; measured here: NNMT inhibition; at 40 µM; stronger effect = lower value
Summary of the method: as §1

[5] = target: Phenylethanolamine N-methyltransferase (Homo sapiens) (UniProt P11086); conditions: purified enzyme, MTase-Glo SAH luminescence; measured here: PNMT inhibition; at 40 µM; stronger effect = lower value
Summary of the method: as §1
% is scaled to controls: 0 for no effect and ±100 for the full control effect.

Compound	activity change, negative = inhibition [1] [%]	activity change, negative = inhibition [2] [%]	activity change, negative = inhibition [3] [%]	activity change, negative = inhibition [4] [%]	activity change, negative = inhibition [5] [%]
CN(C(=O)CC(c1ccccc1)c1ccc(Cl)cc1)C1CCOCC1 (configuration not stated)	-0.519	-0.307	0.342	-0.467	0.05
CN1CCC(Nc2nc(Nc3ccc(Oc4ccccc4)cc3)c3c(=O)[nH]cc(Br)c3n2)CC1	-4.72	-4.36	-49.6	-15.3	-17.1
Cc1ccc(CN2C(=O)c3nc4ccccc4n3CC2(C)C(=O)NC2CCCCCC2)cc1 (configuration not stated)	-5.51	1.54	0.518	-7.46	-2.52
CN1C(=O)c2cc3ccccc3n2CC1(C)C(=O)NCC(=O)NCc1ccc(Cl)cc1 (configuration not stated)	1.99	1.7	13.8	2.05	6.73
CCC(C)NC(=O)Cn1nc2n(CC(C)C)c(=O)c3ccc(C(=O)NC(C)C)cc3n2c1=O (configuration not stated)	0.607	-0.122	0.679	-7.8	-4.89
NC(=O)[C@@H](Cc1c[nH]c2ccccc12)NC(=O)[C@@H]1C[C@@H](NS(=O)(=O)c2cccs2)CCN1C(=O)[C@@H](O)[C@H](O)C(=O)O	-4.96	-7.49	-2.39	-12	-17.8
O=C(NCCc1nccs1)c1cn(CCN2CCNCC2)nn1	-3.76	3.28	-5.67	1.01	12
CC1CCC(NC(=O)C2(C)Cn3c(ccc3-c3ccco3)C(=O)N2Cc2ccccc2F)CC1 (configuration not stated)	-5.55	3.67	-2.3	-15.6	-2.13
COc1cccc(COC2CN(C(=O)CCn3nccc3C)CC(=O)N(Cc3ccccn3)C2)c1 (configuration not stated)	-4.53	-13.7	-2.66	-10.8	-2.44
Cc1ccccc1CSc1nnc2n(CC(C)C)c(=O)c3ccccc3n12	-5.72	3.01	7.57	-14.4	5.71
CCCN1C(=O)c2c(C(=O)NCc3cccc(Br)c3)ncn2CC1(C)C(=O)NCCC(C)C (configuration not stated)	-2.3	1.38	1.34	-10.1	-5.04
CC(=O)O[C@H]1C(=O)[C@@]2(C)[C@H]([C@H](OC(=O)c3ccccc3)[C@]3(O)C[C@H](OC(=O)[C@H](O)[C@@H](NC(=O)c4ccccc4)c4ccccc4)C(C)=C1C3(C)C)[C@]1(OC(C)=O)CO[C@@H]1C[C@@H]2O	0		6.16		
COc1ccccc1CCNC(=O)CNC(=O)C1(C)Cn2c(cc3ccccc32)C(=O)N1C (configuration not stated)	-10	1.49	-9.78	-10.4	-5.03
Cc1cccc(NC(=O)CSc2nnc3n(Cc4ccccc4)c(=O)c4ccccc4n23)c1	-6.09	-4.91	1.75	-6.83	-6.47
Cc1[nH]c(=O)c(C#N)cc1-c1ccc2nccn2c1	-20.9	-1.86	-2.56	-21.8	-2.36
Cc1ccc(CNC(=O)Nc2cnc3c(c2)CCC3)cc1	-2.57	-1.03	-15.8	-0.293	5.56
COc1ccc(-c2cc3n(n2)CC(C)(C(=O)NCc2ccccc2)N(c2ccc(C)cc2)C3=O)cc1 (configuration not stated)	-3.27	4.95	0.705	-1.03	-1.69
COc1cc(F)ccc1-c1nccc2c(=O)cc(-c3cnn(C)c3)oc12	-10.9	-6.35	-12.5	-28.4	-3.4
Cc1ccc(Nc2nc(C)cc3nn(CC(=O)Nc4ccc5c(c4)OCO5)c(=O)n23)cc1	11.1	0	9.48	-1.95	5.09

Compound	activity change, negative = inhibition [1] [%]	activity change, negative = inhibition [2] [%]	activity change, negative = inhibition [3] [%]	activity change, negative = inhibition [4] [%]	activity change, negative = inhibition [5] [%]
CC(C)NC(=O)c1ccc2c(=O)n(C(C)C)c3nn(CC(=O)NCc4ccccc4Cl)c(=O)n3c2c1	4.57	4.99	6.54	-4.46	5.12
CCC(C)NC(=O)c1ccc2c(=O)n(Cc3ccccc3)c3nn(Cc4ccc(Cl)cc4)c(=O)n3c2c1 (configuration not stated)	4.17	0.788	2.41	1.67	-1.9
O=C(Cn1ccc2cc(S(=O)(=O)N3CCCCC3)ccc21)NCCc1ccco1	3.17	3.82	6.15	6.67	1.62
COC(=O)c1ncn2c1C(=O)N(CCc1cccs1)C(C)(C(=O)NC1CCCCC1)C2 (configuration not stated)	-1.6	3.75	-0.566	0.537	-0.492
CC(C)N[C@@H]1CO[C@H](CNC(=O)c2ccccc2)[C@H]1O	-0.606	0.761	2.36	4.65	-9.65
COc1ccccc1CNC(=O)C1(C)Cn2nc(-c3ccccc3)cc2C(=O)N1c1ccc(Cl)cc1 (configuration not stated)	4.41	0	4.14	6.86	2.5
NC1CONC1=O (configuration not stated)	5.73	15.4	6.81	-0.648	6.82
CN(C)C[C@@H]1CN(S(C)(=O)=O)C[C@H]1NC(=O)c1ccc(Cl)s1	0.691	-0.015	1.12	-4.83	1.48
COC(=O)C1=COC(OC2OC(CO)C(O)C(O)C2O)C2C(C)CC(=O)C12O (configuration not stated)	2.71	4.37	9.59	-8.8	2
COc1ccccc1CNC(=O)C1c2c(n(C)c3ccccc23)SCC(=O)N1c1ccccc1OC (configuration not stated)	4.34	1.39	1.74	-0.731	3.01
CC(=O)Nc1c2n(c3ccccc13)CC(C)(C(=O)NC1CCCC1)N(Cc1ccc(F)cc1)C2=O (configuration not stated)	-0.435	4.51	1.13	4.48	1.77
CCC(C)NC(=O)c1ccc2c(=O)n(CC(C)C)c3nn(CC(=O)NCc4ccccc4)c(=O)n3c2c1 (configuration not stated)	4.75	0	8.99	0.239	-1.38
CCc1ccc(N2C(=O)c3cc4occc4n3CC2(C)C(=O)NC2CCCCCCC2)cc1 (configuration not stated)	0.352	0	11	8.91	2.84
COc1cccc(CNC(=O)Cn2c(=O)oc3cc(S(=O)(=O)NCc4ccccc4)ccc32)c1	12.6	5.52	12.8	2.96	11
COc1ccc(-c2ccccc2C(=O)N2CCCC2)nn1	-2.48	-3.09	-2.34	-4.78	2.74
CN1CCN([C@H]2[C@@H]3OC[C@@H](O3)[C@@H](NCc3ccc(-c4ccccc4)cc3)[C@@H]2O)CC1	-4.84	-8.19	-2.74	-9.05	-5.8
CCCC1c2cccn2CCN1C(=O)Nc1ccc(Br)c(C)c1 (configuration not stated)	-7.03	3.15	-33.4	-11	-3.01
C=CCn1c(=O)c2ccc(C(=O)NC(C)CC)cc2n2c(=O)n(CC(=O)Nc3ccccc3F)nc12 (configuration not stated)	3.95	0	3.1	-2.37	4.13
CCCNC(=O)C1C(c2ccc(NC(=O)c3ccco3)cc2)OC(=O)N1Cc1ccccc1 (configuration not stated)	-4.67	-1.1	-0.025	-2.47	-1.37

Compound	activity change, negative = inhibition [1] [%]	activity change, negative = inhibition [2] [%]	activity change, negative = inhibition [3] [%]	activity change, negative = inhibition [4] [%]	activity change, negative = inhibition [5] [%]
CCN1CCCC1CNC(=O)Cn1ccc2cc(S(=O)(=O)N3CCCCC3)ccc21 (configuration not stated)	7.09	0	-15.3	1.18	3.3
C#CCOc1ccc2c(c1)c(-c1ccc(C(C)C)cc1)nc(=O)n2C(C)C	-20.8	-6.17	0.862	-49	-7.57
COc1cc2nc(N3CCCC3)nc(NCCCCCN3CCCC3)c2cc1OC	-13.3	1.35	-73.4	-47.7	-16.6
COc1ccc2cc3n(c2c1)CC(C)(C(=O)NCC1CCCO1)N(Cc1ccc(Cl)cc1)C3=O (configuration not stated)	3.02	0	9.47	7.2	3.67
Cc1cnc(C2CCNC2)n1Cc1ccccc1 (configuration not stated)	-2.08	0.266	-34.6	-1.15	-9.72
NC(=O)c1cnccn1	-2.42	1.78	-2.7	-11.9	-0.769
CC1CCCC(NC(=O)C2(C)Cn3c(nc4ccccc43)C(=O)N2Cc2ccccc2Cl)C1C (configuration not stated)	7.75	0	9.65	10.9	2.4
CCCn1nc(CNC(=O)c2cc(F)ccc2F)c2ccccc21	12.3	2.22	10.4	1.11	9.59
COCCN(C)C[C@H]1C[C@H](CO)CN(C(=O)c2cc3ccccc3s2)C1	-6.12	-11	-4.47	-16.3	-10.5
COCCn1c(C)cnc1CC1CCCN(S(=O)(=O)c2cccc(F)c2)C1 (configuration not stated)	-3.83	-4.58	-2.4	-12.3	-3.82
O=S(=O)(NCCc1noc(-c2ccccc2)n1)c1ccc(Cl)cc1	-2.38	-6.32	-0.256	-5.95	-2.8
Nc1nc(N)c(N=O)c(OCC2CCCCC2)n1	-2.58	9.3	4.54	-16.5	-2.89
CCCn1c(=O)c2ccc(C(=O)NC(C)CC)cc2n2c(=O)n(CC(=O)NCc3ccccc3)nc12 (configuration not stated)	3.36	0	5.69	-0.477	-3.5
CCOCCCNC(=O)N1Cc2c(sc3c2CCCC3)-n2cccc2C1c1ccccc1 (configuration not stated)	-6.93	3.77	-6.83	-16.2	-1.17
CC1(C(=O)NC2CCCCC2)Cn2c(cc3occc32)C(=O)N1Cc1cccc(Br)c1 (configuration not stated)	0.097	0	1.36	-0.662	1.37
CCCn1c(=O)c2ccc(C(=O)NC(C)CC)cc2n2c(=O)n(Cc3cc(C)ccc3C)nc12 (configuration not stated)	-1.7	4.12	1.02	-5.24	-0.96
CSCc1ccc(C(=O)N2CCN(c3ccc(C)cc3)C(=O)C2)o1	-3.71	-2.79	-0.518	0.42	4.13
CC[C@@H](C)[C@H](NC(=O)C(C)(C)NC(=O)[C@H](CCC(N)=O)NC(=O)C(C)(CC)NC(=O)[C@H](Cc1c[nH]c2ccccc12)NC(C)=O)C(=O)N[C@H](C(=O)NC(C)(C)C(=O)N[C@@H](CC(C)C)C(=O)NC(C)(C)C(=O)N1CCC[C@H]1C(=O)N[C@@H](CCC(N)=O)C(=O)NC(C)(C)C(=O)N1CC(O)C[C@H]1C(=O)NC(C)(CC)C(=O)C1CC[C@@H](C(=O)N[C@@H](Cc2ccccc2)C(=O)NCC(=O)O)N1)C(C)O (some centres not stated) (Ac-W[ξIva]Q[Aib][aIle][Thr(3ξ)][Aib]L[Aib]PQ[Aib][X8]-X9)	-7.71	1.08	-0.422	-3.5	-7.57
COCc1noc(CCNC(=O)C2CC3(CCNCC3)CN2)n1 (configuration not stated)	0.761	-0.562	1.51	0.793	12.5
